Measured values reported in the RNAGym collection of RNA variant scans (doi:10.7554/elife.90254).
The source gives no read counts; variants with many changes may rest on few reads.

B1: LINE1-mini (parent)
chain: GGCAGAGCUCAACACAGCGUGGCAAAGUGGCUGUGGCUAGACUGCC

Variants of: B1
Experiment: self-cleavage, relative activity (ratio to wild type); higher = more cleavage; in vitro, sequencing; the parent is a self-cleaving ribozyme

| Variant | self-cleavage |
| --- | --- |
| A12G C23U G40U | 0.05 |
| A12G C23U U28G U34C | 0 |
| A12G C31U G35U | 0.02 |
| A12G C37A C46U | 0.07 |
| A12G C37G A41C | 0.01 |
| A12G C37G C42U C46G | 0.01 |
| A12G C42U C46A | 0.04 |
| A12G G17A A25C | 0 |
| A12G G17A C18A | 0.03 |
| A12G G17A C31U | 0.02 |
| A12G G17A G19C A39G | 0 |
| A12G G17A G22A G27C G40C | 0.02 |
| A12G G17A G40C | 0.04 |
| A12G G17C A25G | 0.08 |
| A12G G17C C23A C37A C45A | 0.02 |
| A12G G17C C23G G30A C37U G40U C42U C46U | 0.05 |
| A12G G17U A25G | 0.13 |
| A12G G17U A26C C37U | 0.02 |
| A12G G17U C18A G22U G36U | 0.04 |
| A12G G17U C46U | 0.01 |
| A12G G17U G19A U20G A24U | 0.01 |

| Variant | self-cleavage |
| --- | --- |
| A12G G17U G30U C37U | 0.31 |
| A12G G19A G21A G36U | 0.01 |
| A12G G19A G44U | 0.04 |
| A12G G19A U28A C37U | 0.02 |
| A12G G19C G22A | 0.01 |
| A12G G19C U28C C37A | 0.02 |
| A12G G19U A26U G33A | 0.1 |
| A12G G19U C23U G35C | 0.02 |
| A12G G19U G33C A41U C42A | 0 |
| A12G G19U U20G | 0.01 |
| A12G G19U U20G G21C U38C | 0.02 |
| A12G G21A G22A U32C G40U | 0.01 |
| A12G G21A G29U | 0.01 |
| A12G G21A G30C | 0.03 |
| A12G G21A U32G | 0.01 |
| A12G G21C A25G | 0.01 |
| A12G G21C G22C | 0.01 |
| A12G G21U A41G | 0 |
| A12G G21U C23A G35U C45G | 0.01 |
| A12G G21U C37U U43A | 0 |
| A12G G21U G29U G44U | 0 |

| Variant | self-cleavage |
| --- | --- |
| A12G G21U G40U | 0.05 |
| A12G G21U U28C G40C | 0.01 |
| A12G G22A C23U U34A C42A U43G C46A | 0 |
| A12G G22A G27C U28C A39G C45A C46G | 0 |
| A12G G22A G30U G40C | 0 |
| A12G G22A U28C G35A | 0.02 |
| A12G G22C A26G U38A A41U | 0.01 |
| A12G G22C G27U | 0.04 |
| A12G G22C G44C | 0.04 |
| A12G G22C U28G G33C | 0.19 |
| A12G G27A C37U | 0.04 |
| A12G G27A C45U | 0.07 |
| A12G G27U C42U | 0.13 |
| A12G G29A C42A G44U C45G | 0.09 |
| A12G G29A G30U C37U C42A | 0.08 |
| A12G G29A U32A | 0.01 |
| A12G G29C U38G C45G | 0 |
| A12G G29U C37A | 0.03 |
| A12G G29U G35C | 0.02 |
| A12G G29U U34A | 0.01 |
| A12G G30A U32G C42A | 0.08 |

| Variant | self-cleavage |
| --- | --- |
| A12G G30U G33C U34G | 0.02 |
| A12G G33U U43A C45G | 0 |
| A12G G35U G36A | 0.1 |
| A12G G36A C42A | 0.03 |
| A12G G36A G44C C45U | 0.02 |
| A12G G36A G44U | 0.01 |
| A12G G36C A41U | 0.09 |
| A12G G36U G40U | 0.11 |
| A12G G40A C46G | 0.06 |
| A12G U20A G22A | 0.01 |
| A12G U20C G30C G40C C46A | 0.01 |
| A12G U20C G44A | 0.01 |
| A12G U20G A26G | 0.28 |
| A12G U20G G27C U28A | 0.01 |
| A12G U28A A39G | 0.02 |
| A12G U28A G35U | 0.02 |
| A12G U28A U34C G35U A39C C42U | 0 |
| A12G U28A U38C | 0.07 |
| A12G U28C G30U U34C | 0.02 |
| A12G U28G C37U | 0.02 |
| A12G U28G G44A | 0.06 |
